Measurements taken from the supplement of paper PMC12423691.
The other results are listed elsewhere or left out. Binding of human transcription factors and regulators to the viral nucleoprotein by AlphaScreen, crude cell-free proteins, amounts not normalised, one pass. Fold of the Venus control; higher = more signal. No active / inactive call. Single-pass screen; sequences are the whole Swiss-Prot entries looked up by name.

B1: TBX15, Q96SF7 (protein)
chain: MSERRRSAVALSSRAHAFSVEALIGSNKKRKLRDWEEKGLDLSMEALSPAGPLGDTEDAAAHGLEPHPDSEQSTGSDSEVLTERTSCSFSTHTDLASGAAGPVPAAMSSMEEIQVELQCADLWKRFHDIGTEMIITKAGRRMFPAMRVKITGLDPHQQYYIAMDIVPVDNKRYRYVYHSSKWMVAGNADSPVPPRVYIHPDSLASGDTWMRQVVSFDKLKLTNNELDDQGHIILHSMHKYQPRVHVIRKDFSSDLSPTKPVPVGDGVKTFNFPETVFTTVTAYQNQQITRLKIDRNPFAKGFRDSGRNRTGLEAIMETYAFWRPPVRTLTFEDFTTMQKQQGGSTGTSPTTSSTGTPSPSASSHLLSPSCSPPTFHLAPNTFNVGCRESQLCNLNLSDYPPCARSNMAALQSYPGLSDSGYNRLQSGTTSATQPSETFMPQRTPSLISGIPTPPSLPGNSKMEAYGGQLGSFPTSQFQYVMQAGNAASSSSSPHMFGGSHMQQSSYNAFSLHNPYNLYGYNFPTSPRLAASPEKLSASQSTLLCSSPSNGAFGERQYLPSGMEHSMHMISPSPNNQQATNTCDGRQYGAVPGSSSQMSVHMV
B2: LCOR, Q96JN0 (protein)
chain: MQRMIQQFAAEYTSKNSSTQDPSQPNSTKNQSLPKASPVTTSPTAATTQNPVLSKLLMADQDSPLDLTVRKSQSEPSEQDGVLDLSTKKSPCAGSTSLSHSPGCSSTQGNGRPGRPSQYRPDGLRSGDGVPPRSLQDGTREGFGHSTSLKVPLARSLQISEELLSRNQLSTAASLGPSGLQNHGQHLILSREASWAKPHYEFNLSRMKFRGNGALSNISDLPFLAENSAFPKMALQAKQDGKKDVSHSSPVDLKIPQVRGMDLSWESRTGDQYSYSSLVMGSQTESALSKKLRAILPKQSRKSMLDAGPDSWGSDAEQSTSGQPYPTSDQEGDPGSKQPRKKRGRYRQYNSEILEEAISVVMSGKMSVSKAQSIYGIPHSTLEYKVKERLGTLKNPPKKKMKLMRSEGPDVSVKIELDPQGEAAQSANESKNE
B3: GCM1, Q9NP62 (protein)
chain: MEPDDFDSEDKEILSWDINDVKLPQNVKKTDWFQEWPDSYAKHIYSSEDKNAQRHLSSWAMRNTNNHNSRILKKSCLGVVVCGRDCLAEEGRKIYLRPAICDKARQKQQRKRCPNCDGPLKLIPCRGHGGFPVTNFWRHDGRFIFFQSKGEHDHPKPETKLEAEARRAMKKVNTAPSSVSLSLKGSTETRSLPGETQSQGSLPLTWSFQEGVQLPGSYSGHLIANTPQQNSLNDCFSFSKSYGLGGITDLTDQTSTVDPMKLYEKRKLSSSRTYSSGDLLPPSASGVYSDHGDLQAWSKNAALGRNHLADNCYSNYPFPLTSWPCSFSPSQNSSEPFYQQLPLEPPAAKTGCPPLWPNPAGNLYEEKVHVDFNSYVQSPAYHSPQEDPFLFTYASHPHQQYSLPSKSSKWDFEEEMTYLGLDHCNNDMLLNLCPLR
B4: SOX9, P48436 (protein)
chain: MNLLDPFMKMTDEQEKGLSGAPSPTMSEDSAGSPCPSGSGSDTENTRPQENTFPKGEPDLKKESEEDKFPVCIREAVSQVLKGYDWTLVPMPVRVNGSSKNKPHVKRPMNAFMVWAQAARRKLADQYPHLHNAELSKTLGKLWRLLNESEKRPFVEEAERLRVQHKKDHPDYKYQPRRRKSVKNGQAEAEEATEQTHISPNAIFKALQADSPHSSSGMSEVHSPGEHSGQSQGPPTPPTTPKTDVQPGKADLKREGRPLPEGGRQPPIDFRDVDIGELSSDVISNIETFDVNEFDQYLPPNGHPGVPATHGQVTYTGSYGISSTAATPASAGHVWMSKQQAPPPPPQQPPQAPPAPQAPPQPQAAPPQQPAAPPQQPQAHTLTTLSSEPGQSQRTHIKTEQLSPSHYSEQQQHSPQQIAYSPFNLPHYSPSYPPITRSQYDYTDHQNSSSYYSHAAGQGTGLYSTFTYMNPAQRPMYTPIADTSGVPSIPQTHSPQHWEQPVYTQLTRP
B5: FOXD4L4, Q8WXT5 (protein)
chain: MNLPRAERPRSTPQRSLRDSDGEDGKIDVLGEEEDEDEVEDEEEEARQQFLEQSLQPGLQVARWGGVALPREHIEGGGGPSDPSEFGTKFRAPPRSAAASEDARQPAKPPYSYIALITMAILQNPHKRLTLSGICAFISGRFPYYRRKFPAWQNSIRHNLSLNDCFVKIPREPGHPGKGNYWSLDPASQDMFDNGSFLRRRKRFKRHQLTPGAHLPHPFPLPAAHAALHNPHPGPLLGAPAPPQPVPGAYPNTAPGRRPYALLHPHPLRYLLLSARVYAGAPKKAEGADLATPAPFPCCSPHLVLSLGRRARVWRRHREADASLSALRVLCKGSGERVQGLRRVCPRPRGATATCSSDHQACCIPKPLPLCCKCPPPLLLGQFCSNSSSIRRTAPTAALPPRARCWAGTCRPRRRC
B6: S100A12, P80511 (protein)
chain: MTKLEEHLEGIVNIFHQYSVRKGHFDTLSKGELKQLLTKELANTIKNIKDKAVIDEIFQGLDANQDEQVDFQEFISLVAIALKAAHYHTHKE
B7: ZNF573, Q86YE8 (protein)
chain: MFPVLEPHQVGLIRSYNSKTMTCFQELVTFRDVAIDFSRQEWEYLDPNQRDLYRDVMLENYRNLVSLGGHSISKPVVVDLLERGKEPWMILREETQFTDLDLQCEIISYIEVPTYETDISSTQLQSIYKREKLYECKKCQKKFSSGYQLILHHRFHVIERPYECKECGKNFRSGYQLTLHQRFHTGEKPYECTECGKNFRSGYQLTVHQRFHTGEKTYECRQCGKAFIYASHIVQHERIHTGGKPYECQECGRAFSQGGHLRIHQRVHTGEKPYKCKECGKTFSRRSNLVEHGQFHTDEKPYICEKCGKAFRRGHQLTVHQRVHTGKKPYECKECGKGYTTASYFLLHQRIHKGGKPYECKECKKTFTLYRNLTRHQNIHTGEKLFECKQCGKTYTTGSKLFQHQKTHTGEKPYECKECGKAFSLYGYLKQHQKIHTGMKHFECKECKKTFTLYRNLTRHQNIHTGKKLFECQECGKAYSTGSNLIQHRKTHTGEKPYKCKECGKTFSLHGYLNQHQKIHTGMKPYECKVCRKTFTFYRNLTLHQSIHTDEKPFECKECGKTFRRSSHLTAHQSIHADKKPYECKECGKAFKMYGYLTQHQKIHTGGKPYECKECGKAFSRASNLVQHERIHTGEKPYVCKQCGKTFRYGSALKAHQRIHRSIKV
B8: ZSCAN26, Q16670 (protein)
chain: MATALVSAHSLAPLNLKKEGLRVVREDHYSTWEQGFKLQGNSKGLGQEPLCKQFRQLRYEETTGPREALSRLRELCQQWLQPETHTKEQILELLVLEQFLIILPKELQARVQEHHPESREDVVVVLEDLQLDLGETGQQDPDQPKKQKILVEEMAPLKGVQEQQVRHECEVTKPEKEKGEETRIENGKLIVVTDSCGRVESSGKISEPMEAHNEGSNLERHQAKPKEKIEYKCSEREQRFIQHLDLIEHASTHTGKKLCESDVCQSSSLTGHKKVLSREKGHQCHECGKAFQRSSHLVRHQKIHLGEKPYQCNECGKVFSQNAGLLEHLRIHTGEKPYLCIHCGKNFRRSSHLNRHQRIHSQEEPCECKECGKTFSQALLLTHHQRIHSHSKSHQCNECGKAFSLTSDLIRHHRIHTGEKPFKCNICQKAFRLNSHLAQHVRIHNEEKPYQCSECGEAFRQRSGLFQHQRYHHKDKLA
B9: TADA2B, Q86TJ2 (protein)
chain: MAELGKKYCVYCLAEVSPLRFRCTECQDIELCPECFSAGAEIGHHRRYHGYQLVDGGRFTLWGPEAEGGWTSREEQLLLDAIEQFGFGNWEDMAAHVGASRTPQEVMEHYVSMYIHGNLGKACIPDTIPNRVTDHTCPSGGPLSPSLTTPLPPLDISVAEQQQLGYMPLRDDYEIEYDQDAETLISGLSVNYDDDDVEIELKRAHVDMYVRKLKERQRRKNIARDYNLVPAFLGKDKKEKEKALKRKITKEEKELRLKLRPLYQFMSCKEFDDLFENMHKEKMLRAKIRELQRYRRNGITKMEESAEYEAARHKREKRKENKNLAGSKRGKEDGKDSEFAAIENLPGFELLSDREKVLCSSLNLSPARYVTVKTIIIKDHLQKRQGIPSKSRLPSYLDKVLKKRILNFLTESGWISRDAS
B10: SOHLH1, Q5JUK2 (protein)
chain: MASRCSEPYPEVSRIPTVRGCNGSLSGALSCCEDSARGSGPPKAPTVAEGPSSCLRRNVISERERRKRMSLSCERLRALLPQFDGRREDMASVLEMSVQFLRLASALGPSQEQHAILASSKEMWHSLQEDVLQLTLSSQIQAGVPDPGTGASSGTRTPDVKAFLESPWSLDPASASPEPVPHILASSRQWDPASCTSLGTDKCEALLGLCQVRGGLPPFSEPSSLVPWPPGRSLPKAVRPPLSWPPFSQQQTLPVMSGEALGWLGQAGPLAMGAAPLGEPAKEDPMLAQEAGSALGSDVDDGTSFLLTAGPSSWPGEWGPGFRAGPPA
B11: CREBL2, O60519 (protein)
chain: MDDSKVVGGKVKKPGKRGRKPAKIDLKAKLERSRQSARECRARKKLRYQYLEELVSSRERAICALREELEMYKQWCMAMDQGKIPSEIKALLTGEEQNKSQQNSSRHTKAGKTDANSNSW
B12: ZNF148, Q9UQR1 (protein)
chain: MNIDDKLEGLFLKCGGIDEMQSSRTMVVMGGVSGQSTVSGELQDSVLQDRSMPHQEILAADEVLQESEMRQQDMISHDELMVHEETVKNDEEQMETHERLPQGLQYALNVPISVKQEITFTDVSEQLMRDKKQIREPVDLQKKKKRKQRSPAKILTINEDGSLGLKTPKSHVCEHCNAAFRTNYHLQRHVFIHTGEKPFQCSQCDMRFIQKYLLQRHEKIHTGEKPFRCDECGMRFIQKYHMERHKRTHSGEKPYQCEYCLQYFSRTDRVLKHKRMCHENHDKKLNRCAIKGGLLTSEEDSGFSTSPKDNSLPKKKRQKTEKKSSGMDKESALDKSDLKKDKNDYLPLYSSSTKVKDEYMVAEYAVEMPHSSVGGSHLEDASGEIHPPKLVLKKINSKRSLKQPLEQNQTISPLSTYEESKVSKYAFELVDKQALLDSEGNADIDQVDNLQEGPSKPVHSSTNYDDAMQFLKKKRYLQAASNNSREYALNVGTIASQPSVTQAAVASVIDESTTASILESQALNVEIKSNHDKNVIPDEVLQTLLDHYSHKANGQHEISFSVADTEVTSSISINSSEVPEVTPSENVGSSSQASSSDKANMLQEYSKFLQQALDRTSQNDAYLNSPSLNFVTDNQTLPNQPAFSSIDKQVYATMPINSFRSGMNSPLRTTPDKSHFGLIVGDSQHSFPFSGDETNHASATSTQDFLDQVTSQKKAEAQPVHQAYQMSSFEQPFRAPYHGSRAGIATQFSTANGQVNLRGPGTSAEFSEFPLVNVNDNRAGMTSSPDATTGQTFG

The binders below were run against nucleoprotein N of Crimean-Congo hemorrhagic fever virus (assay: AlphaScreen luminescence signal relative to Venus negative control (fold); higher = stronger binding to CCHFV N).
Procedure: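 AlphaScreen binding of cell-free made, FLAG-GST-tagged human transcription factors and regulators (crude translation products) to biotinylated N protein; signal as fold of the FLAG-GST-Venus control. One pass.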

**Q.** How did the AlphaScreen luminescence signal turn out when B1 was run?
**A.** 1.67

**Q.** For B2, which AlphaScreen luminescence signal is on record?
**A.** 2.09

**Q.** With B3 as the binder, how does the AlphaScreen luminescence signal read?
**A.** 9.86

**Q.** For B4, which AlphaScreen luminescence signal is on record?
**A.** 1.16

**Q.** Which AlphaScreen luminescence signal does the source give for B5 here?
**A.** 1.86

**Q.** With B6 as the binder, how does the AlphaScreen luminescence signal read?
**A.** 0.977

**Q.** For B7, which AlphaScreen luminescence signal is on record?
**A.** 4.28

**Q.** How did the AlphaScreen luminescence signal turn out when B8 was run?
**A.** 2.09

**Q.** With B9 as the binder, how does the AlphaScreen luminescence signal read?
**A.** 1.91

**Q.** With B10 as the binder, how does the AlphaScreen luminescence signal read?
**A.** 2.05

**Q.** How did the AlphaScreen luminescence signal turn out when B11 was run?
**A.** 1.91

**Q.** B12 was tested. Which AlphaScreen luminescence signal did it give?
**A.** 2.47
